Assay results published in publication PMC7218409, “The protein architecture of the endocytic coat analyzed by FRET microscopy” (Molecular Systems Biology, 2020).
Values belong to the binder of their own block, whether it stands above or below them.

Tests used:
Test in all cases: FRET or BRET; acceptor photobleaching in live yeast; inner cytoplasmic (nucleus and vacuole free) areas; GFP/mCherry or mTurquoise2/mNeonGreen pairs
Details in all cases: partners not purified
[1] = target: T1, mNeonGreen-Sla1 (S. cerevisiae, UniProt P32790 1-1244)
T1 construct: Sla1, S. cerevisiae; gene tagged at its endogenous locus, no truncation told; Linker GS(GGGGS)3ATENNS between N-terminal tag and protein; source: S. cerevisiae, expressed from its endogenous locus, in live cells; not shown: mNeonGreen, N-terminal, kept
T1 sequence (looked up): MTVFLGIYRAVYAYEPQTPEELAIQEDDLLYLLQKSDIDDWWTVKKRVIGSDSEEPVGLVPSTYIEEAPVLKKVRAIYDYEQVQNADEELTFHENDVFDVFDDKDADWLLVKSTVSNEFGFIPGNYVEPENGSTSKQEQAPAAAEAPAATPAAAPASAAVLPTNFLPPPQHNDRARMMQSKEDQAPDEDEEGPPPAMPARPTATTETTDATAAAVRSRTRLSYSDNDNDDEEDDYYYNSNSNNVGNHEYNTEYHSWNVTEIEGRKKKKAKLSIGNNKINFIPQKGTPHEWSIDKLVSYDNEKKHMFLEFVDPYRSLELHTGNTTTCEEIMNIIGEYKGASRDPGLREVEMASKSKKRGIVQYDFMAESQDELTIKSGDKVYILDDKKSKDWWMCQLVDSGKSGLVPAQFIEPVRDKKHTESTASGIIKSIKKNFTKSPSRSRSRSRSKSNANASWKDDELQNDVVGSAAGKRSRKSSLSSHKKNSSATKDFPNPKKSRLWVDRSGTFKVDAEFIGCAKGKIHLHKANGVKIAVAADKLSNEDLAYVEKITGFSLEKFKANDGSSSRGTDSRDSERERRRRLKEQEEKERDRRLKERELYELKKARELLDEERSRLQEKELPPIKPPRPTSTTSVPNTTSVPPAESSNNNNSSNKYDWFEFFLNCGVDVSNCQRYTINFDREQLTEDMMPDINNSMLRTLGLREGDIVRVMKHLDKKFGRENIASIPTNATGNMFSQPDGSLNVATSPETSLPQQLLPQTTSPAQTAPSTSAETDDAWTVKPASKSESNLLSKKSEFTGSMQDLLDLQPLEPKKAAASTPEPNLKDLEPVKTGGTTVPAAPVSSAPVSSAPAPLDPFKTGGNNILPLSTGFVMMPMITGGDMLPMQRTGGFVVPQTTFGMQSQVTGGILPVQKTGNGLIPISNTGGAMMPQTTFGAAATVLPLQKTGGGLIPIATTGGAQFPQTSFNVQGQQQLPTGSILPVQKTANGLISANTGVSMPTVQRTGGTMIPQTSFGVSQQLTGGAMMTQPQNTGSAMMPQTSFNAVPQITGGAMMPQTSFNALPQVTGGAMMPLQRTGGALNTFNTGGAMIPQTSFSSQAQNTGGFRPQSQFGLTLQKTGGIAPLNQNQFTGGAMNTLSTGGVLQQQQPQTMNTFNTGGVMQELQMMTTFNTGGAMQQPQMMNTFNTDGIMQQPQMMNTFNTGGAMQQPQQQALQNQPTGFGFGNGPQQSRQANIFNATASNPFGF

[2] = target: T2, Sla1-mNeonGreen (S. cerevisiae, UniProt P32790 1-1244)
T2 construct: Sla1, S. cerevisiae; gene tagged at its endogenous locus, no truncation told; Linker RTLQVD between protein and C-terminal tag; not shown: mNeonGreen, C-terminal, kept
T2 sequence (looked up): T1 sequence (looked up)

[3] = target: T3, Sla1 with a C-terminal fluorescent tag (GFP/mCherry screen) (S. cerevisiae, UniProt P32790 1-1244)
T3 construct: Sla1, S. cerevisiae; gene tagged at its endogenous locus, no truncation told; Linker RTLQVD between protein and C-terminal tag; also called Sla1-mCherry; C-terminus of Sla1; source: S. cerevisiae, expressed from its endogenous locus, in live cells; not shown: GFP or mCherry, C-terminal, kept
T3 sequence (looked up): T1 sequence (looked up)

- FRET efficiency [1]: 9.8%
- FRET efficiency [2]: 8.5%
B1: mTurquoise2-Las17 (natural protein)
chain: not shown
notes: Las17 (WASP/N-WASP homolog), S. cerevisiae; gene tagged at its endogenous locus, no truncation told; Linker GS(GGGGS)3ATENNS between N-terminal tag and protein; source: S. cerevisiae, expressed from its endogenous locus, in live cells; not shown: mTurquoise2, N-terminal, kept

- FRET efficiency [3]: 1.5%
B2: Las17-GFP (natural protein, S. cerevisiae)
chain: MGLLNSSDKEIIKRALPKASNKIIDVTVARLYIAYPDKNEWQYTGLSGALALVDDLVGNTFFLKLVDINGHRGVIWDQELYVNFEYYQDRTFFHTFEMEECFAGLLFVDINEASHFLKRVQKRERYANRKTLLNKNAVALTKKVREEQKSQVVHGPRGESLIDNQRKRYNYEDVDTIPTTKHKAPPPPPPTAETFDSDQTSSFSDINSTTASAPTTPAPALPPASPEVRKEETHPKHSLPPLPNQFAPLPDPPQHNSPPQNNAPSQPQSNPFPFPIPEIPSTQSATNPFPFPVPQQQFN[about 120 residues not spelt out]NMSSPPPPPVTTFNTLTPQMTAATGQPAVPLPQNTQAPSQATNVPVAPPPPPASLGQSQIPQSAPSAPIPPTLPSTTSAAPPPPPAFLTQQPQSGGAPAPPPPPQMPATSTSGGGSFAETTGDAGRDALLASIRGAGGIGALRKVDKSQLDKPSVLLQEARGESASPPAAAGNGGTPGGPPASLADALAAALNKRKTKVGAHDDMDNGDDW
notes: Las17 (WASP/N-WASP homolog), S. cerevisiae; gene tagged at its endogenous locus, no truncation told; Linker RTLQVD between protein and C-terminal tag; source: S. cerevisiae, expressed from its endogenous locus, in live cells; not shown: GFP, C-terminal, kept
